Results: PubChem BioAssay AID1347165 (National Center for Advancing Translational Sciences (NCATS), 2019)
The campaign covered roughly 220,000 compounds. About 5,700 (2.6%) were called active. This list was built around the results that the source calls inconclusive (neither active nor inactive); the mix of calls is not that of the screen. Calls come from the whole dose curve; as a rule, active = well fitted inhibition curve with a large enough effect; inconclusive = small, poorly fitted or top-dose-only effect; inactive = no such curve, though single readings can be large or run the other way. Potencies of inconclusive entries are doubtful fits and often do not repeat.

Molecular target: Lysine-specific demethylase 5B (Homo sapiens) (UniProt Q9UGL1)
Assay: Primary screen for KDM5B Histone Demethylases FDH-coupled qHTS; note: nearly all actives have a fitted effect of over 70% in size; for activity change, negative = inhibition: 0% is about no effect
Conditions: FDH-coupled NADH fluorescence (FDH is formaldehyde dehydrogenase); activity change, negative = inhibition: at 57.7 µM (top of the series) unless noted
Procedure, shortened: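 Compound dilutions met 200 nM (final) KDM5BΔAP for 10 min at room temperature before substrate addition. The substrate mix held 12.5 µM H3K4me3 with cofactors 25 µM α-ketoglutarate and 50 µM Fe²⁺. NADH signal gain over 30 min defined activity.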
Potency is the fitted concentration of half-maximal effect; tags give direction and shape of the fitted curve.

UniProt Q9UGL1, sequence (Q9UGL1 whole entry, looked up): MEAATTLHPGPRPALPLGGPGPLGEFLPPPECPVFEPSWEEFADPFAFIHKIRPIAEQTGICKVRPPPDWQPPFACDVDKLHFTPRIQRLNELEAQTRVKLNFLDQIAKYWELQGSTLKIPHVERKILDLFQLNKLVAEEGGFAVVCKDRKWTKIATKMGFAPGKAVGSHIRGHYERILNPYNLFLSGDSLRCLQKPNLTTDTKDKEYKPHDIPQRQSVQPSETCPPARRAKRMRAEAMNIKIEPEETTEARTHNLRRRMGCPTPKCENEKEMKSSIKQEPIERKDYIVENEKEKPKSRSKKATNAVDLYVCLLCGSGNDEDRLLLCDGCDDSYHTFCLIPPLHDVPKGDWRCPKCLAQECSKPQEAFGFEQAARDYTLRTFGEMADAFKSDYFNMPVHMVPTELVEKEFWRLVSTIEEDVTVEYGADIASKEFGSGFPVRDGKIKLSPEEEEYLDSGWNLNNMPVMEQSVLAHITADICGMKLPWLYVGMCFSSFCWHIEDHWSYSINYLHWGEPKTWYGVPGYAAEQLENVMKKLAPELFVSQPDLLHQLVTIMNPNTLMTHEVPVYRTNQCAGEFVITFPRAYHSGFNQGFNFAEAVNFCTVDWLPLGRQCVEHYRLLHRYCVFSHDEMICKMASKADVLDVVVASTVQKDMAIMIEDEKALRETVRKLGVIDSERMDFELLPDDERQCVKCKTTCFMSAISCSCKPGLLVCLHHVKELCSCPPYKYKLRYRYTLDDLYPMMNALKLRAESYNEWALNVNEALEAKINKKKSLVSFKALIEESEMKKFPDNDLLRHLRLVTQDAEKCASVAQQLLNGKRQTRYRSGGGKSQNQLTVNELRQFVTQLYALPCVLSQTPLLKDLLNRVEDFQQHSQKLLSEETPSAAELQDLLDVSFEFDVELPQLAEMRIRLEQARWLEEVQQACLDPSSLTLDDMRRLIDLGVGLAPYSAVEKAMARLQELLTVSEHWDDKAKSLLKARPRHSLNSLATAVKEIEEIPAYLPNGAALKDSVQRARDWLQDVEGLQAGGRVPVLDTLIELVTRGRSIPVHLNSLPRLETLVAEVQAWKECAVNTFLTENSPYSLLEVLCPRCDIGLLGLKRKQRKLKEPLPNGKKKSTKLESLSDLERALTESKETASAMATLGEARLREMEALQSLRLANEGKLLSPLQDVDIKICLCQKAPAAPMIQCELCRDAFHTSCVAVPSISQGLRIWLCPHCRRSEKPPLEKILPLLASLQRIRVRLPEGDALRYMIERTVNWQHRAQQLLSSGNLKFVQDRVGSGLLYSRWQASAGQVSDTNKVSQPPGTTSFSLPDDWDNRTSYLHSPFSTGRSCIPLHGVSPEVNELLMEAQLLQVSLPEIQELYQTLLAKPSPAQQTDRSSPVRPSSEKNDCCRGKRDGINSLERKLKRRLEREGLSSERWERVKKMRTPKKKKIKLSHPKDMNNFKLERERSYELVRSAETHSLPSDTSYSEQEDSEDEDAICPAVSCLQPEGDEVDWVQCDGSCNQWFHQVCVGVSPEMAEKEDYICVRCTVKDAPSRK

| SMILES | activity change, negative = inhibition | Potency |
| --- | --- | --- |
| CC(C)c1nnc(NC(=O)c2c[nH]c3ccccc3c2=O)s1 | inactive: 21.4% |  |
| CCC(=O)Nc1ccc(C2(C(=O)N3CCC(N4CCCCC4)CC3)CCCCC2)cc1 | inactive: -18.8% |  |
| Cc1ccc2nc(Nc3ccc(C)c(F)c3)c3nncn3c2c1 |  | inconclusive: 25.1 µM [inhibitor, single point] |
| O=C(NC1CCCN(c2cc(-c3ccccc3)[nH]n2)C1)c1ccccn1 (stereo not drawn) | inactive: -15.3% |  |
| Cc1c(Cl)cccc1NC(=O)C1CCN(c2ncnc3c2nc2n3CCCCC2)CC1 |  | inconclusive: 15.8 µM [inhibitor, partial curve, poor fit] |
| COc1ccc(OC)c2[nH]c(C(=O)NCC(=O)Nc3ccc4c(c3)OCO4)cc12 |  | inconclusive: 17.8 µM [inhibitor, partial curve, poor fit] |
| COCCN1CC(CO)C2(CCN(Cc3ccc(F)c(F)c3)CC2)C1 (stereo not drawn) |  | inconclusive: 17.8 µM [inhibitor, partial curve, poor fit] |
| Cc1ccc(Nc2nc(CSc3nnc4n3CCCCC4)cs2)cc1C | inactive: 9.11% |  |
| Cc1cc(=O)[nH]c2nnnn12 |  | inconclusive: 35.5 µM [inhibitor, single point] |
| COCC(=O)N1CCc2nc(-c3ccccc3)nc(-c3ccc(OC)cc3)c2C1 |  | active: 22.4 µM |
| Cc1nn(C)c(C)c1CCC(=O)N1CCc2[nH]cnc2C1C(=O)O (stereo not drawn) |  | inconclusive: 14.1 µM [inhibitor, partial curve, poor fit] |
| COc1ccccc1-c1cc(C(=O)NCCc2cnc[nH]2)c2c(c1)N(C)CCO2 |  | active: 31.6 µM |
| COc1ccc(-c2noc(-c3cccnc3N3CCN(c4ccc(OC)cc4)CC3)n2)cc1 | inconclusive: -30.8% [inhibitor] |  |
| COC(=O)/C=C/c1cc(OC)c(OC)c(S(=O)(=O)Oc2ccc3c(c2)CCC3)c1 |  | inconclusive: 22.4 µM [inhibitor, single point] |
| Cc1ccc(-c2nc(C#N)c(NCc3ccco3)o2)cc1 |  | inconclusive: 39.8 µM [inhibitor, single point] |
| CN(C)c1nc(OC(C(F)(F)F)C(F)(F)F)nc(N2CCOCC2)n1 | inactive: 14.9% |  |
| O=C(Nc1ccc2oc(-c3ccncc3)nc2c1)c1ccccc1Cl |  | inconclusive: 31.6 µM [inhibitor, partial curve, poor fit] |

| SMILES | activity change, negative = inhibition | Potency |
| --- | --- | --- |
| COc1ccc(CC(=O)NC2CCN(c3cc(-c4ccc(Cl)cc4)[nH]n3)CC2)cc1 |  | inconclusive: 17.8 µM [inhibitor, single point] |
| CN(CCO)c1nc(-c2ccco2)c2c(c1C#N)CCCC2 |  | inconclusive: 22.4 µM [inhibitor, partial curve, poor fit] |
| O=C(O)/C=C/C(=O)NCC1CCC(CNC(=O)/C=C/C(=O)O)CC1 (stereo not drawn) |  | inconclusive: 8.91 µM [inhibitor, partial curve, poor fit] |
| COc1cccc(NC(=O)c2ccc(-c3nc(COc4ccccc4)c(C)o3)cc2)c1 |  | inconclusive: 39.8 µM [inhibitor, partial curve, poor fit] |
| CCNC(=O)N1CCC(CCOc2ccccc2)C1 (stereo not drawn) | inactive: -15.9% |  |
| Cc1cc(=O)[nH]c(NCCNc2cc(C3CC(N)C3)nc(N(C)C)n2)n1 (stereo not drawn) |  | inconclusive: 25.1 µM [inhibitor, partial curve, poor fit] |
| O=C(NC1CCc2ccccc21)c1ccccn1 (stereo not drawn) | inactive: 1.4% |  |
| CCOc1ccc(C(=O)N2CCN(c3oc(-c4ccco4)nc3C#N)CC2)cc1 |  | inconclusive: 17.8 µM [inhibitor, partial curve, poor fit] |
| Cc1cccc(NC(=O)C2CC(=O)N(c3n[nH]c4cccc(F)c34)C2)c1 (stereo not drawn) |  | inconclusive: 39.8 µM [inhibitor, single point] |
| CC(OC(=O)c1cc2cc(F)ccc2s1)C(=O)N1CCNC1=O (stereo not drawn) |  | inconclusive: 22.4 µM [inhibitor, single point] |
| Cc1cc(=O)oc2cc(OCC(=O)NC3(C#N)CCCCC3)ccc12 |  | inconclusive: 28.2 µM [inhibitor, partial curve, poor fit] |
| COc1ccc(C)c2sc(NC(=O)c3cccc(N4C(=O)CCC4=O)c3)nc12 |  | inconclusive: 31.6 µM [inhibitor, single point] |
| CCN(CC)c1ccc(CNc2ccc3c(c2)ncn3C(C)(C)C)cc1 |  | inconclusive: 28.2 µM [inhibitor, partial curve, poor fit] |
| O=C(c1ccc2nccn2c1)N1CCC(c2ccccc2F)C1 (stereo not drawn) |  | inconclusive: 35.5 µM [inhibitor, single point] |
| O=C(NC1=NCCS1)c1ccc2nccnc2c1 | inactive: -24.4% |  |
| C=CCNC(=O)c1nc(Cc2c[nH]c3ccccc23)no1 | inactive: -4.48% |  |
